From article PMC6078440, “Structural and functional analysis of Dickkopf 4 (Dkk4): New insights into Dkk evolution and regulation of Wnt signaling by Dkk and Kremen proteins” (The Journal of Biological Chemistry, 2018) come the findings set out here.

Protein sequences, listed by entry. Tags and fused reporters are not part of them. Residues count along the entry.
UniProt O75581, residues 20-1613: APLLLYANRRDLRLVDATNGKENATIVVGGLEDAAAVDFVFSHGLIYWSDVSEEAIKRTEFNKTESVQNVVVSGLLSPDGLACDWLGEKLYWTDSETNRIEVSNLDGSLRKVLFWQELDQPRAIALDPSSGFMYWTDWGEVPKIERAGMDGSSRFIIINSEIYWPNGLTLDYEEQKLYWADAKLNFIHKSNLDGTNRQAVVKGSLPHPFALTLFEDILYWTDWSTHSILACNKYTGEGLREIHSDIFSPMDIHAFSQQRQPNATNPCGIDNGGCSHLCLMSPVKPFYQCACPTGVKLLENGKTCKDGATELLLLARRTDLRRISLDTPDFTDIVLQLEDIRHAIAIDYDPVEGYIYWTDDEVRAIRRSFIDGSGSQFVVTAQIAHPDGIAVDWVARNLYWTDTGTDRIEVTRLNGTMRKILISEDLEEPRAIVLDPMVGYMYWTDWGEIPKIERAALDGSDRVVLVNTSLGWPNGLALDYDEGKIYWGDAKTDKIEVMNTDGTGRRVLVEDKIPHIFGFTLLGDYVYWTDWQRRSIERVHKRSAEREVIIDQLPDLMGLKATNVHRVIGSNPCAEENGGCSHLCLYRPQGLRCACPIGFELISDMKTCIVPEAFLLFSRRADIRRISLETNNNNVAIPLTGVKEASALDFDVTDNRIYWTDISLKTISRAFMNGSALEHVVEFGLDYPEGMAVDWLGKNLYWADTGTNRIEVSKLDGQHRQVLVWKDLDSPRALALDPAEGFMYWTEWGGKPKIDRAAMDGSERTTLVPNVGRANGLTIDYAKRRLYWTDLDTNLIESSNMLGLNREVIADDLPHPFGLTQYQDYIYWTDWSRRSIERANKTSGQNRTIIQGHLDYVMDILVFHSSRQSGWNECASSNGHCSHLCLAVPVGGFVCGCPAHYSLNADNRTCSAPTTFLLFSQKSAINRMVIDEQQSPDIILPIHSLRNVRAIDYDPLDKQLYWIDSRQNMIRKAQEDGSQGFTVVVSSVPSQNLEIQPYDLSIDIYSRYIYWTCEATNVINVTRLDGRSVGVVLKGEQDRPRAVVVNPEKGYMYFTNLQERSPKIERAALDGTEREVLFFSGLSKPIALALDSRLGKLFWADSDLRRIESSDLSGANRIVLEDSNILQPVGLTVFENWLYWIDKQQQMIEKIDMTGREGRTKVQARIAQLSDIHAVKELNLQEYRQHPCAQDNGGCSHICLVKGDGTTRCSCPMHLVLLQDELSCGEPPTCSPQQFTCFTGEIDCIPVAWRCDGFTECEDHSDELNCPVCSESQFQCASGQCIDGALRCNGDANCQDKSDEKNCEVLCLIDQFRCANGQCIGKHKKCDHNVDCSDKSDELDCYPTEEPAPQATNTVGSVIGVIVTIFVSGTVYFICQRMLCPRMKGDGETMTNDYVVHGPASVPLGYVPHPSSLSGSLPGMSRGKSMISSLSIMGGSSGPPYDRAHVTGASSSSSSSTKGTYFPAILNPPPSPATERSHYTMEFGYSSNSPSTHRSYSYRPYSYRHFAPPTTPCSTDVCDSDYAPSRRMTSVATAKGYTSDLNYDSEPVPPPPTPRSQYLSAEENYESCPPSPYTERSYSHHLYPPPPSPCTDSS

For assay [1], the target named is T1, Kremen1 extracellular domain Fc fusion protein (human) (UniProt Q96MU8).
T1 sequence: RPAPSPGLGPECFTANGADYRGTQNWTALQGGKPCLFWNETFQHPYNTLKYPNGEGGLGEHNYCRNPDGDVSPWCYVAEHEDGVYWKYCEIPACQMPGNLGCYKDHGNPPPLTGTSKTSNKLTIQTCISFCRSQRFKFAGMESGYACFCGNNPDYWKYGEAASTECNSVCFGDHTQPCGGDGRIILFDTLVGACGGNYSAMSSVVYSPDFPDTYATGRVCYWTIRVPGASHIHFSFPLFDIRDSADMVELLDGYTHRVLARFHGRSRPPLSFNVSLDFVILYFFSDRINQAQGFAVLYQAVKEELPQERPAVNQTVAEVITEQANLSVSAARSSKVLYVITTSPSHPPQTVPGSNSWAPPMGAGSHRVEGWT
Put plainly: condition: 100 μM (highest Dkk4N concentration given in the methods); BLI; Krm1 ECD-Fc loaded from supernatants on AHC biosensors; Dkk2FL or Dkk4FL 1-1000 nM, Dkk4N 0.1-100 μM; 25 mM Na2HPO4, 100 mM NaCl, 0.05% Triton X-100, pH 6.5; steady-state fit to a one-site model; only the binder purified.

Assay [2] deals with T1, Kremen1 extracellular domain Fc fusion protein (human). As to the kind of experiment: BLI; Krm1 ECD-Fc loaded from supernatants on AHC biosensors; Dkk2FL or Dkk4FL up to 1 μM; 25 mM Na2HPO4, 100 mM NaCl, 0.05% Triton X-100, pH 7.5; only the binder purified. In general terms: BLI is a label-free optical method that tracks binding on a fibre tip over time.
For assay [3] the target is unchanged. As to the kind of experiment: pull-down; Krm ECD-Fc proteins captured from cell culture medium on protein A-agarose beads; Dkk2FL or Dkk4FL added at 200 nM, 1 h at 4 °C; anti-His Western blot; only the binder purified.
The target in assay [4] is T2, Kremen2 extracellular domain Fc fusion protein (human) (UniProt Q8NCW0).
T2 sequence: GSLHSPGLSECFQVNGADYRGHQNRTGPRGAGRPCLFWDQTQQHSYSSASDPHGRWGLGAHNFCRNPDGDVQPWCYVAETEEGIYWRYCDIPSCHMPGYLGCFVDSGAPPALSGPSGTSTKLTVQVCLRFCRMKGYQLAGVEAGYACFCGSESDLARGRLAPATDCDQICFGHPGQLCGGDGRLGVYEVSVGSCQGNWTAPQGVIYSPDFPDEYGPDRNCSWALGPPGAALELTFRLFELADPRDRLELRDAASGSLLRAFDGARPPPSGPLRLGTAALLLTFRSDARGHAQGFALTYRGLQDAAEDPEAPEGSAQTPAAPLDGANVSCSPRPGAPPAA
The description is as above.

Assay [5] addresses full-length LRP6 expressed on transfected cells (UniProt O75581). Put plainly: flow cytometry on cells; cells transiently transfected with full-length LRP6 or empty vector; His6-tagged Dkk proteins 11-110 nM, 2 h at 4 °C in PBS with 10% fetal calf serum, 1% BSA, 0.1% NaN3; detected with anti-His-PE; only the binder purified. (A flow cytometer gives signals particle by particle.)

The target in assay [6] is T3, isolated Kremen1 extracellular domain, Fc tag removed (human) (UniProt Q96MU8).
T3 sequence: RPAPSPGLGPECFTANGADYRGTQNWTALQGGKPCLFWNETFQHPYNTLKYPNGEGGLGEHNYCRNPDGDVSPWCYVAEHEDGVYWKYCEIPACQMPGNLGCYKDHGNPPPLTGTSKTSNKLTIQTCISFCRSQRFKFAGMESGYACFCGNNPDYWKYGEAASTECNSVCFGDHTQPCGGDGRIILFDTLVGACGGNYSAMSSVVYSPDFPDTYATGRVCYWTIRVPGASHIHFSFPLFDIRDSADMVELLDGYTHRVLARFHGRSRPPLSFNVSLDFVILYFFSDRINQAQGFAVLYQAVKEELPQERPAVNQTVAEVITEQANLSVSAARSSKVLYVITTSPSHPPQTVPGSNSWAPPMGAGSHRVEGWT
As to the kind of experiment: NMR titration; 15N/1H TROSY of 15N/13C/2H-labelled Dkk4FL without and with a 10% molar excess of the unlabelled partner; minimal shift mapping; 25 mM Na2HPO4, 100 mM NaCl, pH 6.5, 35 °C; both purified.

These are yes or no findings as the source states them, for the method shown. For some of these results: Binding seen in cells or lysates may run through a third protein. Some binding calls cover weakened binding; strength is not graded here. Where a sequence is shown, tags or fusion partners need not be part of it.

B1: N-terminal region of Dkk4 including CRD1, residues 19-97 (domain or fragment)
chain: LVLDFNNIRSSADLHGARKGSQCLSDTDCNTRKFCLQPRDEKPFCATCRGLRRRCQRDAMCCPGTLCVNDVCTTMEDAT
For the molecule B1, the binding entry in assay [1] is listed as “no binding”.

B2: full-length mature Dkk2 (Dickkopf 2), residues 38-259, His-tagged (natural protein, human, UniProt Q9UBU2 38-259, looked up)
chain: IKSSLGGETPGQAANRSAGMYQGLAFGGSKKGKNLGQAYPCSSDKECEVGRYCHSPHQGSSACMVCRRKKKRCHRDGMCCPSTRCNNGICIPVTESILTPHIPALDGTRHRDRNHGHYSNHDLGWQNLGRPHTKMSHIKGHEGDPCLRSSDCIEGFCCARHFWTKICKPVLHQGEVCTKQRKKGSHGLEIFQRCDCAKGLSCKVWKDATYSSKARLHVCQKI
notes: also called Dkk2FL
As for B2, the binding entry in assay [2] is recorded as “no binding (condition: at pH 7.5; up to 1 μM)”; in assay [3], “binds”; in assay [4] it was “binds”; in assay [5] it was “binds”.

B3: full-length mature Dkk4 (Dickkopf 4), residues 19-224, His-tagged (natural protein, human, UniProt Q9UBT3 19-224, looked up)
chain: LVLDFNNIRSSADLHGARKGSQCLSDTDCNTRKFCLQPRDEKPFCATCRGLRRRCQRDAMCCPGTLCVNDVCTTMEDATPILERQLDEQDGTHAEGTTGHPVQENQPKRKPSIKKSQGRKGQEGESCLRTFDCGPGLCCARHFWTKICKPVLLEGQVCSRRGHKDTAQAPEIFQRCDCGPGLLCRSQLTSNRQHARLRVCQKIEKL
modifications: uniformly 15N/13C/2H-labelled in the NMR experiments
notes: residues numbered from the N-terminal methionine; also called Dkk4FL
Turning to B3, the binding result in assay [2] is “no binding (condition: at pH 7.5; up to 1 μM)”; in assay [3], “binds”; in assay [4], “binds”; in assay [6] it was “binds”; in assay [5] it was “binds”.
